Measurements published in patent publication US20240336638A1, “IMIDAZOLE COMPOUND, AND INTERMEDIATE AND APPLICATION THEREOF” (priority 2021, published 2024).
The name of at least one read-out is uncertain.

Test system: AA-induced platelet aggregation
Assay: Inhibitory effect on AA-induced platelet aggregation in rabbits in vitro
Type: cell-based, rabbit
Conditions: AA 80 M; for Aggregation rate: max within 4 minutes, mean ± SD, n = 5; for Inhibition rate (%): vs AA model group
Protocol: Several experimental groups were established, including a blank control group, an AA model control group, and various test compounds. Each test compound had three concentration groups: 10^−3 M, 10^−4 M, and 10^−5 M.
Rabbits were anesthetized with a 20% urethane solution (5 mL/kg body weight) through intraperitoneal injection. After being fixed in a supine position, the skin of the neck was cut about 6 cm, bluntly separated with a hemostat, and the trachea was exposed after the common carotid artery was separated. The distal end of the common carotid artery was ligated with a fine thread, and the proximal end was clamped with an arterial clamp for vascular intubation. After the intubation was fixed, the artery clamp was opened, and the blood was placed into a blood collection tube containing 3.8% trisodium citrate so that the blood was mixed well with the 3.8% trisodium citrate in a volume ratio of 9:1.
The prepared anticoagulant blood was mixed well and centrifuged for 10 minutes at 500 rpm, and the upper layer of plasma was aspirated, then platelet-rich plasma (PRP) was obtained, and the remaining anticoagulant blood was centrifuged for 15 minutes at 3,000 rpm, followed by aspirating the supernatant to obtain platelet-poor plasma (PPP).
First, 300 μL of PPP was added to the test cup and put into the test wells, and calibrated by pressing the “PPP” key. Subsequently, 240 μL of the washed platelets were added to the test cup, then added with 30 μL of different concentrations of drug solution, incubated for 10 minutes at 37° C. in a preheated bath, and then put into the test wells. 3 μL of 100× CaCl2) solution (final concentration of 0.2 g/L) and 30 μL of inducer (final concentration of AA of 80 µM) were added to the test wells, and then the “Start” key was pressed immediately. The maximum aggregation rate within 4 minutes was measured. Measurements were repeated five times for each drug concentration.
The platelet aggregation inhibition rate was calculated with the following formula:
Inhibition rate (%)=(maximum aggregation rate in the AA model control group−maximum aggregation rate in the administration group)/maximum aggregation rate in the AA model control group×100%
All data were expressed as mean standard deviation (mean b SD). SPSS 22.0 software was used for statistical analysis of the data. Intergroup data were analyzed using one-way ANOVA, with P<0.05 considered as statistically significant and P<0.01 considered as highly significant.

Compound	Aggregation rate (Table 2, 1 * 10^−3 M)	Inhibition rate (%) (Table 2, 1 * 10^−3 M)	Aggregation rate (Table 2, 1 * 10^−4 M)	Inhibition rate (%) (Table 2, 1 * 10^−4 M)	Aggregation rate (Table 2, 1 * 10^−5 M)	Inhibition rate (%) (Table 2, 1 * 10^−5 M)	Aggregation rate (Table 3, 1 * 10^−3 M)	Inhibition rate (%) (Table 3, 1 * 10^−3 M)	Aggregation rate (Table 3, 1 * 10^−4 M)	Inhibition rate (%) (Table 3, 1 * 10^−4 M)	Aggregation rate (Table 3, 1 * 10^−5 M)	Inhibition rate (%) (Table 3, 1 * 10^−5 M)
O=C(O)C1CN(c2ccc(Cn3ccnc3)cc2)C1 [Compound 39, 1-(4-((1H-Imidazol-1-yl)methyl)phenyl)azetidine-3-carboxylic acid]	25.8 ± 6.1	35.1	33.3 ± 6.3	16.4	38.3 ± 5.6	3.8						
O=C(O)C1CC(O)(c2ccc(Cn3ccnc3)cc2)C1 (stereo not drawn) [Compound 40, 3-(4-((1H-Imidazol-1-yl)methyl)phenyl)-3-hydroxycyclobutane-1-carboxylic acid]	25.5 ± 2.7	36.0	29.6 ± 3.5	25.6	39.2 ± 5.1	1.5						
C#C/C(=C\c1ccc(Cn2ccnc2)cc1)C(=O)O [Compound 41, (E)-2-(4-((1H-Imidazol-1-yl)methyl)benzylidene)butynoic acid]	26.9 ± 3.6	32.4	36.9 ± 4.1	7.4	37.7 ± 2.1	5.2						
CC#C/C(=C\c1ccc(Cn2ccnc2)cc1)C(=O)O [Compound 42, (E)-2-(4-((1H-Imidazol-1-yl)methyl)benzylidene)pent-3-ynoic acid]	22.0 ± 2.9	44.8	38.0 ± 4.5	4.4	38.4 ± 5.0	3.6						
O=C(O)/C(=C/c1ccc(Cn2ccnc2)cc1)c1cn[nH]c1 [Compound 43, (E)-3-(4-((1H-Imidazol-1-yl)methyl)phenyl)-2-(1H-pyrazol-4-yl)acrylic acid]	24.7 ± 6.7	37.9	36.2 ± 4.7	9.1	40.6 ± 5.0	−2.0						
O=C(O)/C=C/c1ccc(Cn2ccnc2)cn1 [Compound 44, (E)-3-(5-((1H-Imidazol-1-yl)methyl)pyridin-2-yl)acrylic acid]	27.2 ± 2.9	31.8	33.8 ± 4.8	15.1	39.7 ± 2.7	0.3						
O=C(O)/C=C/c1ccc(Cn2ccnc2)nc1 [Compound 45, (E)-3-(6-((1H-Imidazol-1-yl)methyl)pyridin-3-yl)acrylic acid]	26.3 ± 4.2	34.0	37.9 ± 3.4	4.9	40.2 ± 4.2	−1.1						
O=C(O)/C=C/c1cnc(Cn2ccnc2)nc1 [Compound 46, (E)-3-(2-((1H-Imidazol-1-yl)methyl)pyrimidin-5-yl)acrylic acid]	22.4 ± 3.4	43.6	36.6 ± 4.1	8.1	38.1 ± 2.9	4.3						
O=C(O)/C=C/c1ccc(Cn2ccnc2)nn1 [Compound 47, (E)-3-(6-((1H-Imidazol-1-yl)methyl)pyridazin-3-yl)acrylic acid]	24.5 ± 3.9	38.4	37.3 ± 3.5	6.3	41.6 ± 1.0	−4.6						
O=C(O)/C=C/c1ccc(Cn2cnc(F)c2)nc1 [Compound 48, (E)-3-(6-((4-Fluoro-1H-imidazol-1-yl)methyl)pyridin-3-yl)acrylic acid]	37.2 ± 4.4	6.6	36.3 ± 4.2	8.8	36.1 ± 2.6	9.2						
O=C(O)/C=C/c1cnc(Cn2ccnc2)c(Cl)c1 [Compound 49, (E)-3-(6-((1H-Imidazol-1-yl)methyl)-5-chloropyridin-3-yl)acrylic acid]	24.7 ± 3.9	37.9	34.9 ± 7.9	12.4	40.0 ± 3.7	−0.6						
Cc1cc(/C=C/C(=O)O)cnc1Cn1ccnc1 [Compound 50, (E)-3-(6-((1H-Imidazol-1-yl)methyl)-5-methylpyridin-3-yl)acrylic acid]	23.3 ± 4.3	41.4	36.7 ± 3.9	7.7	36.3 ± 4.6	8.9						
O=C(O)/C=C/c1cnc(Cn2ccnc2)c(F)c1 [Compound 51, (E)-3-(6-((1H-Imidazol-1-yl)methyl)-5-fluoropyridin-3-yl)acrylic acid]	26.7 ± 8.4	32.9	35.1 ± 1.6	11.8	36.9 ± 5.0	7.2						
O=C(O)[C@@H]1C[C@H]1c1ccc(Cn2ccnc2)nc1 [Compound 52, (1R,2R)-2-(6-((1H-Imidazol-1-yl)methyl)pyridin-3-yl)cyclopropane-1-carboxylic acid]							30.9 ± 5.5	42.7	40.0 ± 6.7	26.0	42.4 ± 10.7	21.5
O=C(O)[C@H]1C[C@@H]1c1ccc(Cn2ccnc2)nc1 [Compound 53, (1S,2S)-2-(6-((1H-Imidazol-1-yl)methyl)pyridin-3-yl)cyclopropane-1-carboxylic acid]							49.3 ± 5.1	8.7	48.0 ± 7.7	11.1	51.3 ± 12.2	5.1
O=C(O)[C@@H]1C[C@H]1c1ccc(Cn2ccnc2)cn1 [Compound 54, (1R,2R)-2-(5-((1H-Imidazol-1-yl)methyl)pyridin-2-yl)cyclopropane-1-carboxylic acid]							32.0 ± 5.3	40.8	41.4 ± 7.0	23.3	49.0 ± 7.2	9.3
O=C(O)[C@H]1C[C@@H]1c1ccc(Cn2ccnc2)cn1 [Compound 55, (1S,2S)-2-(5-((1H-Imidazol-1-yl)methyl)pyridin-2-yl)cyclopropane-1-carboxylic acid]							22.1 ± 7.0	59.1	46.1 ± 9.9	14.7	45.1 ± 4.4	16.5
O=C(O)C1CN(c2ccc(Cn3ccnc3)nc2)C1 [Compound 56, 1-(6-((1H-Imidazol-1-yl)methyl)pyridin-3-yl)azetidine-3-carboxylic acid]							8.1 ± 4.0	85.0	25.8 ± 7.0	52.2	45.8 ± 4.6	15.1
